# Test results: PubChem BioAssay AID1865 (National Center for Advancing Translational Sciences (NCATS), 2009)
# About 540 (0.19%) of roughly 280,000 compounds were called active. The shares of active, inactive and inconclusive entries below differ from those in the screen. The call rests on the fitted dose curve; in most records, active means well fitted activation curve with a large enough effect; inconclusive means small, poorly fitted or top-dose-only effect; inactive means flat fitted curve, though single readings scatter. Potencies beside an inconclusive call are fits to weak or partial responses and may not hold up.
# Assay: Quantitative High-Throughput Screen for Regulators of Epigenetic Control; further: nearly all actives have a fitted effect of over 60% in size; on GFP activation: % of control where 0% means no effect
# Conditions: murine LDR cells, GFP reporter derepression, 30 h; GFP activation: at 53.9 µM (top of the series)
# Description: NIH Molecular Libraries Screening Centers Network [MLPCN] NIH Chemical Genomics Center [NCGC] MLSCN Grant: 1 X01 MH079860-01 Assay Provider: Elisabeth D. Martinez, University of Texas SW Medical Center NCGC Assay Overview: The Locus Derepression (LDR) assay detects the derepression or induction of a GFP reporter that is stably integrated in a genomic region of murine cells that is presumably silenced. Transcription of the GFP reporter is controlled by a CMV promoter, which normally is constitutively active. However, this cell line, termed LDR, was selected for lack of constitutive production of GFP. GFP production can be induced by incubating the cells with histone deacetylase or DNA methyltransferase inhibitors (Martinez et al., 2006). Compounds that derepress or induce this reporter locus are identified by enumerating GFP positive cells using a laser-scanning microplate cytometer (Auld et al., 2006). This assay was screened against the MLSMR earlier (AID 597; (Johnson et al., 2008) and has been rescreened here against the expanded collection.
# NCGC Assay Protocol Summary: Three hundred LDR cells in 5 uL per well were dispensed into black, clear-bottom 1536-well plates. Twenty-three nL compound was transferred to the assay plate and cells were incubated 30 hours at 37 C. Medium was removed, cells were washed two times with PBS, and GFP-positive cells were enumerated as fluorescent objects between the sizes of 20 to 120 um width and depth using an Acumen Explorer. References Auld, DS, Johnson, RL, Zhang, YQ, Veith, H, Jadhav, A, Yasgar, A, Simeonov, A, Zheng, W, Martinez, ED, Westwick, JK, Austin, CP, Inglese, J (2006). Fluorescent protein-based cellular assays analyzed by laser-scanning microplate cytometry in 1536-well plate format. Methods Enzymol 414: 566-89. Johnson, RL, Huang, W, Jadhav, A, Austin, CP, Inglese, J, Martinez, ED (2008). A quantitative high-throughput screen identifies potential epigenetic modulators of gene expression. Anal Biochem 375: 237-48. Martinez, ED, Dull, AB, Beutler, JA, Hager, GL (2006). High-content fluorescence-based screening for epigenetic modulators. Methods Enzymol 414: 21-36.
# Potency means the concentration at half of the fitted maximal effect; tags describe the fitted curve by direction and shape.
SMILES,Potency,GFP activation
COc1ccc(-c2c(C)nn3c(-c4ccccc4)cc(-c4ccccc4)nc23)cc1OC,"inconclusive: 5.01 µM [activator, full curve]",
C/C(=N\NC(N)=O)C1(C)CCCCC1,,inactive: -5.47%
O=C(Cn1c(=O)n(-c2ccccc2)c(=O)c2c3c(sc21)CCCC3)Nc1cccc(F)c1,"inconclusive: 15.8 µM [activator, single point]",
COc1ccc(-c2cc(-c3nnc(COC(=O)c4ccncc4)o3)c3ccccc3n2)cc1OC,"inconclusive: 35.5 µM [activator, single point]",
Cc1ccc(-c2nnc(Nc3ccc(C(N)=O)cc3)c3ccccc23)cc1S(=O)(=O)N1CCCCC1,"inconclusive: 35.5 µM [activator, single point]",
O=C(Nc1cccc2c1C(=O)NC2=O)c1ccc(S(=O)(=O)N2CCCC2)cc1,,inactive: 0.82%
Cc1cc(C(=O)N/N=C/c2c(C)nn(-c3ccccc3)c2C)n[nH]1,,inactive: -0.99%
COC(=O)CSc1nc2ccc(NC(=O)CSc3nnnn3Cc3ccccc3)cc2s1,"inconclusive: 22.4 µM [activator, single point]",
CN1/C(=C\C(=O)CSc2cccc[n+]2[O-])C(C)(C)c2ccccc21,"inconclusive: 31.6 µM [activator, single point]",
CCOc1ccc(NC(=O)CN2C(=O)NC(CCSC)C2=O)cc1 (stereo unspecified),"inconclusive: 35.5 µM [activator, single point]",
Cc1ccccc1N1C(=O)CC(Sc2nnc(-c3ccccc3)o2)C1=O (stereo unspecified),"inconclusive: 3.55 µM [activator, single point]",
Cc1ccc(C2=NN3C(=O)c4ccccc4C3C2)cc1 (stereo unspecified),"inconclusive: 20 µM [activator, single point]",
C=C(C)C(=O)OC1(C(F)(F)F)Oc2cc(C)ccc2NC1=O (stereo unspecified),"inconclusive: 15.8 µM [activator, single point]",
Cc1cccc(NC(=O)c2sc3cccc(Cl)c3c2Cl)c1,,inactive: -1.59%
Cc1cccc(C)c1NC(=O)c1ccc2nc(CCc3ccccc3)oc2c1,,inactive: 0%
COc1ccc(O)c(C(=O)CC(=O)c2ccc(F)cc2)c1,,inactive: -0.27%
CC1=C(C(=O)Nc2ccccc2)C(c2ccncc2)n2nc(SCc3ccccc3)nc2N1 (stereo unspecified),,inactive: -1.84%
COc1ccc(C(=O)/C=C/c2cn(CC(O)CN(CC(C)C)CC(C)C)c3ccccc23)cc1OC (stereo unspecified),"inconclusive: 25.1 µM [activator, single point]",

SMILES,Potency,GFP activation
N#C/C(=C(/O)CN1C(=O)c2ccccc2C1=O)c1nc2ccccc2[nH]1,,inactive: 0.781%
CC(C)(C)CC(=O)Nc1ccc(Nc2ccccc2)cc1,,inactive: -2.03%
O=C(c1ccc2c(c1)[nH]c(=S)n1c3ccccc3nc21)N1CCN(c2cccc(Cl)c2)CC1,,inactive: -2.93%
CC(=O)NC(c1ccco1)c1ccc2cccnc2c1O (stereo unspecified),"inconclusive: 31.6 µM [activator, single point]",
O=C(c1ccc(Cl)cc1)n1nc(-c2ccccc2)nc1NCc1ccco1,,inactive: 0.102%
COc1cccc(C(=O)NCc2cn3cccc(C)c3n2)c1,"inconclusive: 5.01 µM [activator, full curve]",
CCOCCCNC(=O)C(c1ccc(OC)cc1)N(Cc1cccs1)C(=O)CNC(C)=O (stereo unspecified),"inconclusive: 25.1 µM [activator, single point]",
CC(=O)Nc1ccc(S(=O)(=O)NC2(C(F)(F)F)C(=O)Nc3c2c(=O)[nH]c(=O)n3-c2ccc(C)cc2)cc1 (stereo unspecified),,inactive: 0%
COc1ccc(NC(=O)Cn2c(=O)n(Cc3ccccc3Cl)c(=O)c3cc(OC)c(OC)cc32)cc1,"inconclusive: 17.8 µM [activator, partial curve]",
Cc1ccc(O)c(C(=O)CC(=O)c2cccc(F)c2)c1,,inactive: -0.98%
COc1ccc(NC(=O)Cn2c(=O)n(Cc3ccco3)c(=O)c3sc4ccccc4c32)cc1Cl,"inconclusive: 17.8 µM [activator, single point]",
CC(C(=O)NCc1ccccc1)n1ccc2cc(S(=O)(=O)N3CCCC3)ccc21 (stereo unspecified),,inactive: 4.23%
Cc1ccc(C(=O)O/N=C/c2ccc3c(c2)OCO3)cc1,,inactive: 0.971%
CN1CCN(C(=O)c2cc(COc3c(F)cccc3F)on2)CC1c1ccccc1 (stereo unspecified),"inconclusive: 5.62 µM [activator, single point]",
O=C1CC(c2cccc(Br)c2)c2cc3c(cc2N1)CCC3 (stereo unspecified),"inconclusive: 35.5 µM [activator, single point]",
CCC(C(=O)O)n1ccc2cc(S(=O)(=O)N3CCCCC3)ccc21 (stereo unspecified),,inactive: -2.92%
N#CC(C(=O)NCc1ccccc1)c1nc2ccccc2nc1N1CCCC1 (stereo unspecified),"inconclusive: 28.2 µM [activator, single point]",
Cc1nc(N(C)C)c2sc(=S)n(C)c2n1,,inactive: 0.962%
